Measurements as given in PubChem BioAssay AID1460 (National Center for Advancing Translational Sciences (NCATS), 2008).
The campaign covered roughly 270,000 compounds. About 5,800 (2.1%) were called active. Inconclusive means that the source gave no clear call. Such entries were picked first, then a sample of the others. Calls come from the whole dose curve; as a rule, active = well fitted inhibition curve with a large enough effect; inconclusive = small, poorly fitted or top-dose-only effect; inactive = flat fitted curve, though single readings scatter. Potencies of inconclusive entries are doubtful fits and often do not repeat.
Note: nearly all actives have a fitted effect of over 55% in size.
Potency is the fitted concentration of half-maximal effect; tags give direction and shape of the fitted curve.

These compounds were tested against Microtubule-associated protein tau (Homo sapiens) (UniProt P10636) (assay: qHTS for Inhibitors of Tau Fibril Formation, Thioflavin T Binding). Details: recombinant tau K18 P301L, heparin-induced fibrillization, ThT fluorescence; series mostly up to 57.4 µM.
Chain of UniProt P10636 (P10636 whole entry, looked up): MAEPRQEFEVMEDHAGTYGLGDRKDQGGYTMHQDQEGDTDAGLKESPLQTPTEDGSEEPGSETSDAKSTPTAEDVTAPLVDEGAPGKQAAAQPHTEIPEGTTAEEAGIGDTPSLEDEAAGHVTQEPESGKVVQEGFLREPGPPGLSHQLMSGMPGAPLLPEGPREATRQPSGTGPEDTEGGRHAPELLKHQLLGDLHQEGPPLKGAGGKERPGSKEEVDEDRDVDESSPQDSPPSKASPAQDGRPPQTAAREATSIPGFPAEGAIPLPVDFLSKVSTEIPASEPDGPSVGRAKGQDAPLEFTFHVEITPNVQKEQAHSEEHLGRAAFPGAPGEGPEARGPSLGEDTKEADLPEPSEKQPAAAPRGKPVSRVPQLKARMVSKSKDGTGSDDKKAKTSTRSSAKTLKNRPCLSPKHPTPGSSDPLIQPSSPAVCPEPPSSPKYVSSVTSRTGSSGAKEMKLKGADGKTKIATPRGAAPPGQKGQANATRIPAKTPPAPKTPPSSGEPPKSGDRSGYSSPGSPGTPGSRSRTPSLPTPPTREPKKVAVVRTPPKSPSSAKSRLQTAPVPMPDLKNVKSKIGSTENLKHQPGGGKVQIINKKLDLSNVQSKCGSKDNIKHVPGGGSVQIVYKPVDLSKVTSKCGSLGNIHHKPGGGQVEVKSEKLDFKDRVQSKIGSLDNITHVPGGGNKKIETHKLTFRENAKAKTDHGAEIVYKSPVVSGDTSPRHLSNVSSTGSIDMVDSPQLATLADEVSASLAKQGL
Summary of the method: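 Fibril formation assay: tau K18 P301L at 15 uM with trace Alexa 594 label, heparin inducer 20 uM, pH 7 sodium acetate buffer, 37 C for 6 hr; endpoint ThT signal.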
`O=C(C#Cc1cccc([N+](=O)[O-])c1)c1ccccc1` was tested, and the Potency was inconclusive: 14.1 µM [inhibitor, partial curve]. For `O=c1[nH]c2cc3c(cc2cc1CN(Cc1nnnn1CC1CCCO1)C1CCCCC1)OCO3` (stereo not drawn), the Potency was “inactive”. With `Cc1ccc(NC(=O)Cn2cnc3cc([N+](=O)[O-])ccc3c2=O)c(Cl)c1` the Potency was “inactive”. With `O=C(Cn1nc(Cl)nc1Cl)c1cc2ccccc2oc1=O` the Potency was inconclusive: 3.55 µM [inhibitor, partial curve, poor fit]. `O=C(N/N=C/c1ccc(-c2ccc(Br)cc2)o1)c1ccc2c(c1)OCO2` was tested, and the Potency was inconclusive: 3.55 µM [inhibitor, full curve]. With `Cc1cccc(N2C(=O)/C(=C\c3ccc(C(=O)O)cc3)c3ccccc3C2=O)c1` the Potency was “inactive”. `Cc1ccc(C(=O)Nc2nc(-c3nnn(-c4cccc(C(F)(F)F)c4)c3C)ns2)cc1` was tested, and the Potency was inconclusive: 1.78 µM [inhibitor, partial curve, poor fit]. `Cc1cc(C(=O)COC(=O)c2n[nH]c3ccccc23)c(C)n1C` was tested, and the Potency was inconclusive: 44.7 µM [inhibitor, partial curve, poor fit]. In the case of `CCOC(=O)c1nnc(-c2ccccc2)nc1Oc1ccccc1Cl`, the Potency is reported as active: 14.1 µM. In the case of `CCc1ccccc1NC(=O)c1ccc(=O)n(Cc2ccc(F)cc2)c1`, the Potency is reported as “inactive”. In the case of `C=CCn1c(SCCN2C(=O)c3ccccc3C2=O)nc2scc(-c3ccccc3)c2c1=O`, the Potency is reported as “inactive”. With `COC(=O)c1ccc(CC(=O)c2ccc(O)cc2O)o1` the Potency was inconclusive: 8.91 µM [inhibitor, partial curve]. For `O=c1[nH]c(CN2CCc3ccccc32)nc2scc(-c3cccs3)c12`, the Potency was inconclusive: 14.1 µM [inhibitor, single point]. `CCOC(=O)c1nc(Nc2ccc(C(=O)OC)cc2)c2ccccc2n1` was tested, and the Potency was inconclusive: 0.631 µM [inhibitor, full curve, poor fit]. In the case of `O=c1cc(-c2ccccc2Cl)oc2c(Br)ccc(O)c12`, the Potency is reported as “inactive”. `CN1C(=O)C2C(c3ccc(N(C)C)cc3)=NN(Cc3ccccc3)C2C1=O` (stereo not drawn) was tested, and the Potency was inconclusive: 17.8 µM [inhibitor, single point]. For `Cc1ccc2cc(CN(CC(C)C)C(=O)C3CCCO3)c(=O)[nH]c2c1` (stereo not drawn), the Potency was “inactive”. With `O=C(c1cccc(Cl)c1)n1nc(-c2cccnc2)nc1NCc1ccccc1` the Potency was inconclusive: 12.6 µM [inhibitor, partial curve]. In the case of `Nc1ccc(Nc2ccc([N+](=O)[O-])cc2[N+](=O)[O-])cc1`, the Potency is reported as inconclusive: 17.8 µM [inhibitor, partial curve]. With `Cc1cccc(CNC(=O)c2ccc(C)c(-n3c(C)nc4cccnc43)c2)c1` the Potency was “inactive”. `CCC(CC)c1nnc(NC(=O)c2c(-c3ccccc3)noc2C)s1` was tested, and the Potency was “inactive”. With `O=C(O)c1ccc2c(c1)C(=O)N(c1cccc(C(=O)/C=C/c3ccccc3)c1)C2=O` the Potency was inconclusive: 10 µM [inhibitor, partial curve]. For `CN(C)c1ccc(NC(=O)C(=O)NCCOc2ccccc2)cc1`, the Potency was inconclusive: 0.708 µM [inhibitor, full curve, poor fit]. For `COCCNC(=O)c1cccc(Nc2nc(-c3ccccc3)c3cc(Cl)ccc3n2)c1`, the Potency was inconclusive: 12.6 µM [inhibitor, partial curve]. With `N=c1c(S(=O)(=O)c2ccc(Cl)cc2)cc2c(=O)n3ccccc3nc2n1CCN1CCOCC1` the Potency was inconclusive: 17.8 µM [inhibitor, partial curve]. With `CC(=O)C1=C(c2ccc(Br)cc2)N(C(C)=O)n2c(nnc2C2CCCCC2)S1` the Potency was inconclusive: 17.8 µM [inhibitor, single point]. For `COc1cccc2cc(-c3nc(-c4cccs4)cs3)c(=O)oc12`, the Potency was inconclusive: 3.55 µM [inhibitor, full curve]. With `CCN(CC)c1ccc(NC(=O)C2CCCN(S(=O)(=O)c3cccnc3)C2)c(C)c1` (stereo not drawn) the Potency was “inactive”. With `CCC(=O)c1ccc(N2CCN(C(=O)c3ccccc3)CC2)c(F)c1` the Potency was inconclusive: 10 µM [inhibitor, partial curve]. For `CC(=O)CC(=O)Nc1ccn(-c2ccccc2)n1`, the Potency was inconclusive: 7.94 µM [inhibitor, full curve]. For `COc1ccc(C2CC(=O)C3=C(C2)Nc2ncnn2C3c2ccccc2C)cc1` (stereo not drawn), the Potency was “inactive”. In the case of `COc1ccc(N2CCN(C(c3cccs3)c3nnnn3C3CCCC3)CC2)cc1` (stereo not drawn), the Potency is reported as inconclusive: 15.8 µM [inhibitor, partial curve]. For `CC(C)CC(=O)Nc1nnc(SCc2cc(=O)n3ccccc3n2)s1`, the Potency was “inactive”. In the case of `Cc1cc(C)c(NC(=O)CCCn2c(C)c3cnn(-c4ccccc4)c(=O)c3c2C)c(C)c1`, the Potency is reported as “inactive”. With `O=C(C[n+]1ccccc1)N1c2ccccc2Sc2ccccc21` the Potency was inconclusive: 15.8 µM [inhibitor, partial curve, poor fit]. `C/C(=N\NS(=O)(=O)c1ccc(C)c([N+](=O)[O-])c1)c1cc2ccccc2o1` was tested, and the Potency was inconclusive: 31.6 µM [inhibitor, partial curve]. In the case of `NC(N)=N[C@@H](CCC(=O)O)C(=O)O`, the Potency is reported as inconclusive: 7.08 µM [inhibitor, single point]. In the case of `CCOCCCn1c(SC(C(=O)Nc2cc(C)ccc2C)c2ccccc2)nnc1-c1ccc(Cl)cc1` (stereo not drawn), the Potency is reported as inconclusive: 17.8 µM [inhibitor, single point]. With `N/C(=N\NC(=O)c1ccccc1Cl)c1cc2ccccc2oc1=O` the Potency was inconclusive: 44.7 µM [inhibitor, single point]. In the case of `Cc1ccc(N2CCN(C(=O)C3CCN(c4ncnc5c4nc4n5CCCCC4)CC3)CC2)c(C)c1`, the Potency is reported as “inactive”. For `CN(c1ccc(OCC(=O)OCC(=O)Nc2ccccc2)cc1)S(=O)(=O)c1ccc(F)cc1`, the Potency was “inactive”. For `CCn1c2ccccc2c2cc(NC(=O)CSc3nnc(-c4cccc(OC)c4)n3N)ccc21`, the Potency was inconclusive: 3.16 µM [inhibitor, partial curve]. In the case of `CCOC(=O)c1cc(-c2ccccc2)n(CCC(=O)Nc2cc(C)cc(C)c2)c1C`, the Potency is reported as inconclusive: 5.01 µM [inhibitor, partial curve, poor fit].
